# Experimental data reported in the supplement of paper PMC11417369.
# ± gives the standard deviation of the averaged measurements. The list shows a part of the results.
# Test system: PfAP2-I AP2 domain 3 (GST-tagged)
# Assay: gcPBM binding intensity (ln(normalized median fluorescence intensity)); higher = stronger DNA binding
# Method in brief: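 GST-tagged P. falciparum DNA-binding domains produced in E. coli were incubated for 1 h on an Agilent 4 × 180k array of primer-extended double-stranded 36-bp intergenic genomic probes with negative controls. Binding intensity is the highest Masliner-normalised natural-log median intensity across replicate spots of either probe orientation, with bound protein detected by Alexa488 anti-GST antibody at 488 nm.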
row,Sequence,gcPBM binding intensity (ln)
1,TTCTTTGCTTTTCAAACACACAAAAGTTATTATAGT [CACACA_site6390],8.02 ± 0.52
2,GGAATTGAAAAATCAGCACACACACTAATACATACA [CACACA_site9059],8.16 ± 0.47
3,AATAATTGTTAAAGGTGTACAATACCTACATAAGAA [XGTACX_site4215],8.31 ± 0.49
4,AAATGGCAATAATGGACACACAAATGTTGTTATATA [CACACA_site2819],7.68 ± 0.61
5,AAAAAGGAAATTTACACACACATATAATATACATTA [CACACA_site3296],7.67 ± 0.49
6,ATTTACCAGACCATATGTACATACATAAAACACACA [XGTACX_site3788],8.27 ± 0.38
7,TACACAAGGGGAAAAATATATATATATATATATATA [TGCATGCA_negctrl_site217],9.39 ± 0.54
8,TAAAAAATTTTATATTCACACACATATATATATATA [CACACA_site8109],9.31 ± 0.23
9,TAAAAGTATATATATACACACATAAATATATATGTA [CACACA_site663],7.43 ± 0.36
10,TTGTGAAATAAAATTTGTACACACATATATATATAT [XGTACX_site1078],9.485 ± 0.007
11,AAAATTTAAAGCATGACACACAATTATATTATGTGC [CACACA_site3435],7.38 ± 0.61
12,TTTTTTTTGGAATTCACACAAATATAACATGGGTAT [CACACA_site5185],7.89 ± 0.58
13,TTCTTTTCTTTAGTAGAATGTAAAAAATATAATCTT [XGTACX_negctrl_site290],7.65 ± 0.57
14,ACTTATATATTATGTTGTCCGTCCATTCTCTTTATC [XGTACX_site3769],8.09 ± 0.92
15,TTTTCATTCAATTATATTTATATATATATATATATA [GTGCAC_negctrl_site538],9.24 ± 0.4
16,CAAAATATTTTTATAACACACATATATATAATGTGC [CACACA_site4767],7.8 ± 0.52
17,TACATGTATAAATAAGCACACATGTGGATATGTACA [CACACA_site93],8.34 ± 0.35
18,ACGTGTGATTATAATTGTACTTTAATGTAAGAATGA [XGTACX_site1109],7.92 ± 0.45
19,ATATATATATATATATGTACTTATAATAATATTCAA [XGTACX_site2593],9.53 ± 0.35
20,AATTTTATTTAATTTTTTTGGGAAATGATAAAATTT [CACACA_negctrl_site934],7.43 ± 0.45
21,TTATTTTATTTTTTTGTGCACATATATATTTATAAA [GTGCAC_site9615],10.86 ± 0.028
22,AAAAAAAAAAAAAAAACACACATACATACATACATA [CACACA_site6125],8.66 ± 0.47

row,Sequence,gcPBM binding intensity (ln)
1,TTTTTTTTTTTTTTTGCACACACCATATTTATAGAA [CACACA_site3310],9.63 ± 0.49
2,AGAAAAGTGATATATACACACTTATATTTATTTATA [CACACA_site7350],7.58 ± 0.49
3,TATTGTCTATAATAAACACACAATATTAAAAATATA [CACACA_site6624],7.55 ± 0.39
4,ATCTTTCCTATTTGTAGTACAAAAAAAAAAAAAAAA [XGTACX_site5485],8.23 ± 0.38
5,TTAAATGATGTAAACACACACATATACATTATTATA [CACACA_site3162],7.66 ± 0.48
6,TTTTATAAGGTGAAAAGTACATATAACTTATTTTAC [XGTACX_site5572],7.75 ± 0.65
7,TATTGTTACTTTATATGTACTAATTAAACATATACA [XGTACX_site6363],7.87 ± 0.27
8,TTGTATTATATTGTATTATGTTTAAATGAAAAAAAA [CACACA_negctrl_site662],7.82 ± 0.4
9,AAAAAAAAAAAAAAAAGTACACAAATTTTAAAAATT [XGTACX_site3006],8.86 ± 0.4
10,AAAAATACCTTATATATACACACTATGTTTTTCTTT [CACACA_site1192],7.96 ± 0.63
11,AAATATTAGTAACACAGACACACAAAAAAAAAAAAA [CACACA_site2175],8.03 ± 0.76
12,TGTTTATTTTTAAAAAGTACATATTTAAAAAACTTC [XGTACX_site271],7.82 ± 0.11
13,TTTTCTAAATAAATAGTGCATTTATTATATATACAT [GTGCAC_site9766],10.7 ± 0.37
14,CAAAAGAAGGTAAACACACACACACGCATACAAAAA [CACACA_site7724],8.07 ± 0.55
15,ATTTCTCTATCGTAATGTACATAAAAAATGAAAAAA [XGTACX_site1201],8.12 ± 0.25
16,CAAAACCTTATATGTACACACATATACATCACCCTT [CACACA_site3170],7.96 ± 0.49
17,ATAGAATAAAACTATACACACCTATATTTAAACATA [CACACA_site5106],7.85 ± 0.54
18,AAATATATATATATATATATATATATATATATATAT [CACACA_negctrl_site677],9.45 ± 0.81
19,TGATCAGATAGACACACACACAAAAAAAAAAAAAAA [CACACA_site7805],8.12 ± 0.57
20,AAATGAATAAATAAGACACACACGAAAATAAGTAAA [CACACA_site71],8.18 ± 0.42
21,AATTACTACATAAATACATGCATAATTATATATATA [TGCATGCA_site783],8.52 ± 0.28
22,TATCTCTTCATATTGTGTACATATTTTTATTTATTG [XGTACX_site4038],8.14 ± 0.73

row,Sequence,gcPBM binding intensity (ln)
1,ATAAAATATAAAAATTGTACGATAATAATAGTAGGA [XGTACX_site8951],7.8 ± 0.64
2,AACACTTCTTATTTATGTACTTAATTCCCAACGGAA [XGTACX_site4818],8.02 ± 0.68
3,TTGTTCTATTTAAGTAGTACATACACACACATATAC [XGTACX_site8484],8.18 ± 0.34
4,ACATATATATATTCTACACACTTATAATATAATACA [CACACA_site2461],7.99 ± 0.61
5,CACAATACTTTCATCACACATATATATATATATATA [CACACA_site4677],9.35 ± 0.58
6,ACTAAACTAATATGTACACACATATAACATTAATTT [CACACA_site7128],8.16 ± 0.21
7,TTTCGTTCATAAAAAAGTACATATGAGCAAAAGGTA [XGTACX_site8936],8.01 ± 0.22
8,TATATATATATATATAGTACATATTTATATATGAAA [XGTACX_site8488],9.2 ± 0.52
9,GAATTAAAATAATACGTACACACATGTATAATACAT [CACACA_site1004],8.18 ± 0.26
10,AAATAATATTTTTTTTTTTTTTTTTTTTTATGTTAT [CACACA_negctrl_site809],7.29 ± 0.3
11,TGGTAGTATATCATAGAAATCATTGTATAACAAATA [XGTACX_negctrl_site569],7.51 ± 0.54
12,AAAAAAAAAAAAAAAACACACAAATCATAAATAAAT [CACACA_site478],8.68 ± 0.53
13,ATAGTCTTAATGACTACACACCTAACTATGCATGCA [CACACA_site5084],7.65 ± 0.79
14,ATACAGTTGCATATGGTGCACGAATAATACACCTAT,11 ± 0.25
15,ATTTTTCTTTTTAATACACACAAAAGTGATACAAAC [CACACA_site3923],8.13 ± 0.49
16,TTTTTTTGTATTTGTTTATTTAATGATAAAATTAAA [CACACA_negctrl_site225],7.72 ± 0.61
17,TGTATTATATATACACAAATATTTATGTGTGTGTTT [XGTACX_negctrl_site475],7.73 ± 0.41
18,ATAATATATACTATATGTACATATCTTTTCCTCTTT [XGTACX_site5553],7.92 ± 0.67
19,TTTTTCATAAAAAAATAAAAAAAATTAACATAGAAA [XGTACX_negctrl_site11],7.33 ± 0.79
20,TTTTAGAGTGGTATATATTAATTTTTAATAAAAAAA [CACACA_negctrl_site1652],7.92 ± 0.3
21,AATAAAAGAAGACAGAGTACACAGGTTGTATTTTCC [XGTACX_site7208],7.7 ± 0.69
22,TGTGCATAAATTTATGCACACATAAAAAAAAAAAAA [CACACA_site8954],11.5 ± 0.93

row,Sequence,gcPBM binding intensity (ln)
1,ATAGTATCTGGTAGCTGTACGAGTCGTAGAGTGTAG [XGTACX_site2030],8.26 ± 0.62
2,TATGTATTTTTTAAGTGTACCTATATATATATATAT [XGTACX_site7934],9.22 ± 0.071
3,TGGGAAGGGTGGGAAACTTTATCAAAAACTTATTAC [GTGCAC_negctrl_site16],8.23 ± 0.57
4,TATAATAATAATTATTGTACGATTAGGTTAATTCAT [XGTACX_site1984],7.79 ± 0.44
5,AGAAAGGTGGTATTAAAAGAATAACCTATGAATAAA [GTGCAC_negctrl_site325],7.86 ± 0.43
6,AAAAAATTATACCTTTGTACATAAATAAAATATTAT [XGTACX_site418],7.55 ± 0.45
7,ACCCATTGCTCACGTGCACACATAGAAAAATAATTC [CACACA_site4389],10.7 ± 0.16
8,ATAACATAAGGAAATACACACATATATAAGTATATA [CACACA_site778],7.66 ± 0.45
9,TATGTATATATTTACGCATGCTACTCTATTTTGAGA [TGCATGCA_site990],7.64 ± 0.48
10,AGGTTTCATTTAGCATGTACATATTATAAAAATTGT [XGTACX_site8448],8.01 ± 0.59
11,AAGATTACTTATATATGTACACATAATACAAATGTC [XGTACX_site520],7.95 ± 0.47
12,TCTGTTAATATTTATACACACATATATATATATATA [CACACA_site1139],9.36 ± 0.54
13,CATATATATTTGTTCACACACACACTAATAAAAAAA [CACACA_site8787],8.09 ± 0.33
14,TGGAGGAACCTCATATGTACGTATAAATATATATTT [XGTACX_site5603],7.75 ± 0.46
15,TTAAAGCACCCATGCACACACACAAAGGAAAAGAAA [CACACA_site233],11.1 ± 0.93
16,TGATAAATTAAAAATTGTACTATTATAATAATATAT [XGTACX_site6615],7.5 ± 0.34
17,TTTATATAAATTTATTCACACAACTAATTTTTTAAA [CACACA_site4848],7.53 ± 0.61
18,ATCAAATAGAGACACACACACCTAAACATAAAAGAA [CACACA_site7321],8.07 ± 0.64
19,ACAATAAACATATATACACACACAAAAAAAAAAACA [CACACA_site8033],7.81 ± 0.35
20,ATTTATTAATATCCCAGTACTCATGGGGAATAATGA [XGTACX_site4014],7.66 ± 0.46
21,TTGTGTAAAGGTATTATTGTATTATTCAAAATAAAA [XGTACX_negctrl_site167],7.64 ± 0.38
22,AATATATAATATATATGTACTTATATATAAAAGATA [XGTACX_site7635],7.8 ± 0.21
